We go through four molecules from paper PMC4383634, “Dual-Specificity Anti-sigma Factor Reinforces Control of Cell-Type Specific Gene Expression in Bacillus subtilis” (PLoS Genetics, 2015).

By UniProt entry, the sequences of proteins in these tests, tags left out.
UniProt P06224: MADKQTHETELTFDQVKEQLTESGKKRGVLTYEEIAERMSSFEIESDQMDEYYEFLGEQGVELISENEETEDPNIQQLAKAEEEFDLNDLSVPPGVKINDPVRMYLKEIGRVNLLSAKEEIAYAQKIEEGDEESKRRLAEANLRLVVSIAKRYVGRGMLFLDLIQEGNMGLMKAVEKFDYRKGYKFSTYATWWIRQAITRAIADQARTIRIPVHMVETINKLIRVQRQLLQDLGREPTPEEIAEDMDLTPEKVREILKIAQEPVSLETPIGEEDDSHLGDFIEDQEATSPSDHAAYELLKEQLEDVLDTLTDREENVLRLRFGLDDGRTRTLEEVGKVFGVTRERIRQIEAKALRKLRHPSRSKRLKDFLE

Results are given in words; binding and its absence hold for the method and conditions named. For part of these data: Binding seen in cells or lysates may run through a third protein. Some results given as binding are weak or reduced against the parent protein; the word gives no strength. Tags and fused reporters may be left off the sequences shown.

The target of assay [1] is T1, GAL4 DNA binding domain-σ^(E 30–141) fusion (B. subtilis) (UniProt P06222).
T1 sequence: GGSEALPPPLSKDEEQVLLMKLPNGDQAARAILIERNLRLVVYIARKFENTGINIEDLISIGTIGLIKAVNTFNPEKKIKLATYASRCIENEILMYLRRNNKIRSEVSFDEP
In words: two-hybrid; GAL4-based yeast two-hybrid; CsfB fused to the activation domain, sigma factors or fragments to the DNA binding domain; lacZ reporter, colony lift assay and β-galactosidase assay in liquid medium.

Assay [2] deals with T2, GAL4 DNA binding domain-σ^F fusion (B. subtilis) (UniProt P07860).
T2 sequence: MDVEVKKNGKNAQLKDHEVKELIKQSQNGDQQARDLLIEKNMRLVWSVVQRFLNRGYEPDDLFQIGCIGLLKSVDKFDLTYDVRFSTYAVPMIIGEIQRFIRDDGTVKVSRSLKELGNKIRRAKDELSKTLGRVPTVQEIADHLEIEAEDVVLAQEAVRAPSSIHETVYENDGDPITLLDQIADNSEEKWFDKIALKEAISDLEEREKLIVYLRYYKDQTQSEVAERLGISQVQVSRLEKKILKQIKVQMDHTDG
The description is as above.

For assay [3], the target named is T3, GAL4 DNA binding domain-σ^(E 30–172) fusion (B. subtilis) (UniProt P06222).
T3 sequence: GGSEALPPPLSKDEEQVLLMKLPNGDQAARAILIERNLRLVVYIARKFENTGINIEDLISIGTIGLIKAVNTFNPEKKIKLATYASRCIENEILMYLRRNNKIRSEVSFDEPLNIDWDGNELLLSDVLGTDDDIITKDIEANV
The assay is described as above.

Assay [4] has as its target GAL4 DNA binding domain-σ^A fusion (B. subtilis) (UniProt P06224). The assay is described as above.
For assay [5], the target named is T4, GAL4 DNA binding domain-σ^G fusion (B. subtilis) (UniProt P19940).
T4 sequence: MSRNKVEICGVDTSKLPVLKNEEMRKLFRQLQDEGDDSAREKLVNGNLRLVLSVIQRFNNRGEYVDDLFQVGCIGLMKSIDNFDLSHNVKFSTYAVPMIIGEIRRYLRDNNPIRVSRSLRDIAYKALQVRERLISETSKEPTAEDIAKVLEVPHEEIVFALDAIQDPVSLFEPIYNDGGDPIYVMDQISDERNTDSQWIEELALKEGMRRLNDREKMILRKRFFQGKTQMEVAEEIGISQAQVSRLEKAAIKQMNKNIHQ
The description is as above.

Assay [6] concerns the target T5, GAL4 DNA binding domain-σ^E fusion (B. subtilis) (UniProt P06222).
T5 sequence: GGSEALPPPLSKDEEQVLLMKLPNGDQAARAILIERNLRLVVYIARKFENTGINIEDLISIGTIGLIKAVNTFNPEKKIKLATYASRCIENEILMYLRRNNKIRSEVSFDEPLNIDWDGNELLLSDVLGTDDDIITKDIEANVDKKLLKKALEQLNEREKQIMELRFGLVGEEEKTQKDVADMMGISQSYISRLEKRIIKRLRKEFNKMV
Described as above.

Assay [7] deals with T6, GST-σ^(E 98–141) (B. subtilis) (UniProt P06222).
T6 sequence: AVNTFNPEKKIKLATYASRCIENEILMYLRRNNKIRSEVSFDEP
The assay can be described thus: pull-down; GST or GST-σ^E fusions on glutathione beads incubated with CsfB-Strep II (100 nM); after washing, eluted proteins immunoblotted with anti-Strep II tag antibody; both purified. Background: Immunoblotting shows a protein as a band on a membrane.

Assay [8] deals with T7, GST-σ^(E 141–172) (B. subtilis) (UniProt P06222).
T7 sequence: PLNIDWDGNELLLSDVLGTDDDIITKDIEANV
Described as above.

Assay [9] addresses T8, GST-σ^(E 30–98) (B. subtilis) (UniProt P06222).
T8 sequence: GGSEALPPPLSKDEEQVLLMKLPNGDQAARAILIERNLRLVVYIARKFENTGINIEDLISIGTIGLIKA
The assay is described as above.

Assay [10] addresses T9, GST-σ^(E 172–239) (B. subtilis) (UniProt P06222).
T9 sequence: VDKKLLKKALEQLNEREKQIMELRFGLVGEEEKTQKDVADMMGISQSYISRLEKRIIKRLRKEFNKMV
Described as above.

For assay [11], the target named is T10, CsfB-GFP fusion protein (B. subtilis) (UniProt P37534).
T10 sequence: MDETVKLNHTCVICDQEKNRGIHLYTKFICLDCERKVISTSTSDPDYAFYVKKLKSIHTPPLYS
In words: pull-down; GFP-binding protein (GBP) on sepharose beads (GFP-Trap) incubated with cleared whole cell extracts of B. subtilis strains 4 h after the onset of sporulation in resuspension medium; bound proteins eluted and immunoblotted with anti-σ^E, anti-σ^G, anti-σ^K and anti-GFP; CsfB-GFP from P_csfB, P_sigF or P_sigK.

B1: GAL4 activation domain-CsfB fusion (protein, UniProt P37534 1-64)
chain: MDETVKLNHTCVICDQEKNRGIHLYTKFICLDCERKVISTSTSDPDYAFYVKKLKSIHTPPLYS
Turning to B1, the binding result in assay [1] is listed as “binds”; in [2], “no binding”; in assay [3], “binds”; in [4] it was “no binding”; in [5] it was “binds”; in assay [6], “binds”.

B2: CsfB-StrepII-tagged protein (natural protein, B. subtilis, UniProt P37534 1-64, looked up)
chain: MDETVKLNHTCVICDQEKNRGIHLYTKFICLDCERKVISTSTSDPDYAFYVKKLKSIHTPPLYS
notes: CsfB (Gin), anti-sigma factor of B. subtilis; source: E. coli, overproduced and partially purified; not shown: Strep II tag, C-terminal, kept
As for B2, the binding result in assay [7], in assay [8], in assay [9] and in [10] was “no binding (tested: 100 nM)” in each case.

B3: σ^E (in sporulating B. subtilis cells) (protein, UniProt P06222 30-239)
chain: GGSEALPPPLSKDEEQVLLMKLPNGDQAARAILIERNLRLVVYIARKFENTGINIEDLISIGTIGLIKAVNTFNPEKKIKLATYASRCIENEILMYLRRNNKIRSEVSFDEPLNIDWDGNELLLSDVLGTDDDIITKDIEANVDKKLLKKALEQLNEREKQIMELRFGLVGEEEKTQKDVADMMGISQSYISRLEKRIIKRLRKEFNKMV
B3: the binding result in [11] is “binds”.

B4: σ^G (in sporulating B. subtilis cells) (protein, UniProt P19940 1-260)
chain: MSRNKVEICGVDTSKLPVLKNEEMRKLFRQLQDEGDDSAREKLVNGNLRLVLSVIQRFNNRGEYVDDLFQVGCIGLMKSIDNFDLSHNVKFSTYAVPMIIGEIRRYLRDNNPIRVSRSLRDIAYKALQVRERLISETSKEPTAEDIAKVLEVPHEEIVFALDAIQDPVSLFEPIYNDGGDPIYVMDQISDERNTDSQWIEELALKEGMRRLNDREKMILRKRFFQGKTQMEVAEEIGISQAQVSRLEKAAIKQMNKNIHQ
For B4, in [11], the binding entry is reported as “binds”.
